Reference: PubChem BioAssay (NCATS)
The shares of active, inactive and inconclusive entries below differ from those in the screen. Potencies of inconclusive entries are left out as doubtful fits. The source made the active and inactive calls. Calls follow the shape of the dose curve; as a rule, active = well fitted inhibition curve with a large enough effect; inconclusive = small, poorly fitted or top-dose-only effect; inactive = no such curve, though single readings can be large or run the other way.

Target: Cytochrome P450 3A4 (Homo sapiens) (UniProt P08684)
Sequence of UniProt P08684 (P08684 whole entry, looked up): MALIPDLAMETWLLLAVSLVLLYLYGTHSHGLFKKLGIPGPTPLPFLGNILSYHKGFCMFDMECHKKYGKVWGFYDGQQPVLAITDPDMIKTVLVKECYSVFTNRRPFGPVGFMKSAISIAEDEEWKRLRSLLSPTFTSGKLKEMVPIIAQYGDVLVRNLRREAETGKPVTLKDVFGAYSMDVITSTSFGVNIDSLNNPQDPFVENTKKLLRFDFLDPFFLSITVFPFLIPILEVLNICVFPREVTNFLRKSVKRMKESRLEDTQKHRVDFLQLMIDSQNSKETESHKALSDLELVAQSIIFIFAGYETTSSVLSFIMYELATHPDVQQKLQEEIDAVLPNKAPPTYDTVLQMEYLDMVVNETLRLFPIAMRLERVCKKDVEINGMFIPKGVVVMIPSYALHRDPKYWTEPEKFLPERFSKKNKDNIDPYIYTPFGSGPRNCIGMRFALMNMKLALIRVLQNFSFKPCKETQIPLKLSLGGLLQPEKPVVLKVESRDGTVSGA
Assay: qHTS Assay for Inhibitors and Substrates of Cytochrome P450 3A4 (AID 884); also: nearly all actives have a fitted effect of over 50% in size
Conditions: recombinant CYP3A4, Luciferin-PPXE luminescence; series mostly up to 57.1 µM; activity change, negative = inhibition: at the top concentration
Procedure, shortened: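 Luminescent readout of luciferin produced by CYP3A4 (20 nM) dealkylation of Luciferin-PPXE, 25 uM (its KM). NADPH-driven reaction ran 60 min at RT after 10 min compound preincubation; data scaled to 57 uM ketoconazole as 100% inhibition.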
% is scaled to controls: 0 for no effect and ±100 for the full control effect; potency is read from the fitted curve at half-maximal effect; tags tell the direction and shape of the fitted curve.

Row | Structure (SMILES) | Potency | activity change, negative = inhibition
1 | O=C(O)/C=C\C(=O)Nc1ccc2c(c1)-c1ccccc1C2 | inconclusive [inhibitor, partial curve] | –
2 | COc1ccc(C(=O)N/N=C2/C(=O)c3c(C)cc(C)cc3CC2(C)C)cc1 | active: 3.16 µM | –
3 | O=C(O)c1ccccc1-c1ccccc1C(=O)Nc1ccc2c(c1)[nH]c(=O)c1ccccc12 | inconclusive [inhibitor, partial curve] | –
4 | O=c1ccc2cc(O)c(O)cc2o1 | – | inactive: -20.6%
5 | COC(=O)c1ccc(CCc2cc(O)ccc2O)cc1 | inconclusive [inhibitor, partial curve] | –
6 | NC(=O)/C(=C\c1ccncc1)c1cccc2ccccc12 | active: 3.16 µM | –
7 | Cc1ccccc1C(=N)c1ccccc1Cc1cccc2ccccc12 | inconclusive [inhibitor, partial curve] | –
8 | NS(=O)(=O)c1ccc(N=Nc2ncccc2O)cc1 | inconclusive [inhibitor, partial curve, poor fit] | –
9 | CC(C)(C)c1ccc(-c2nnc(SCc3ccc(Cl)cc3)n2-c2cccc(C(F)(F)F)c2)cc1 | inconclusive [inhibitor, partial curve] | –
10 | O=c1[nH]c(SCc2cccc([N+](=O)[O-])c2)nc2nc[nH]c12 | inconclusive [inhibitor, partial curve] | –
